In article PMC4336329 (PLoS ONE, 2015):
Hit rate of the full screen: of about 310,000 compounds, about 2,200 (0.71%) showed an effect of 50% or more. The effect is printed as a negative number. The list shows a part of the results. Where a SMILES comes first, the peptide text is derived from it. [ ]: non-standard residue; d: D form. The star is where a group is joined. ξ: configuration not given here. Cbz = O=C(OCc1ccccc1)*; OBn = c1ccc(CO*)cc1; ξP = O=C(O)C1CCCN1

Biological target: human ether-à-go-go-related gene (hERG) potassium channel (human, UniProt Q12809)
Test: primary screen, population patch clamp on CHO cells stably expressing hERG

Chain of human ether-à-go-go-related gene (hERG) potassium channel (Q12809 whole entry, looked up): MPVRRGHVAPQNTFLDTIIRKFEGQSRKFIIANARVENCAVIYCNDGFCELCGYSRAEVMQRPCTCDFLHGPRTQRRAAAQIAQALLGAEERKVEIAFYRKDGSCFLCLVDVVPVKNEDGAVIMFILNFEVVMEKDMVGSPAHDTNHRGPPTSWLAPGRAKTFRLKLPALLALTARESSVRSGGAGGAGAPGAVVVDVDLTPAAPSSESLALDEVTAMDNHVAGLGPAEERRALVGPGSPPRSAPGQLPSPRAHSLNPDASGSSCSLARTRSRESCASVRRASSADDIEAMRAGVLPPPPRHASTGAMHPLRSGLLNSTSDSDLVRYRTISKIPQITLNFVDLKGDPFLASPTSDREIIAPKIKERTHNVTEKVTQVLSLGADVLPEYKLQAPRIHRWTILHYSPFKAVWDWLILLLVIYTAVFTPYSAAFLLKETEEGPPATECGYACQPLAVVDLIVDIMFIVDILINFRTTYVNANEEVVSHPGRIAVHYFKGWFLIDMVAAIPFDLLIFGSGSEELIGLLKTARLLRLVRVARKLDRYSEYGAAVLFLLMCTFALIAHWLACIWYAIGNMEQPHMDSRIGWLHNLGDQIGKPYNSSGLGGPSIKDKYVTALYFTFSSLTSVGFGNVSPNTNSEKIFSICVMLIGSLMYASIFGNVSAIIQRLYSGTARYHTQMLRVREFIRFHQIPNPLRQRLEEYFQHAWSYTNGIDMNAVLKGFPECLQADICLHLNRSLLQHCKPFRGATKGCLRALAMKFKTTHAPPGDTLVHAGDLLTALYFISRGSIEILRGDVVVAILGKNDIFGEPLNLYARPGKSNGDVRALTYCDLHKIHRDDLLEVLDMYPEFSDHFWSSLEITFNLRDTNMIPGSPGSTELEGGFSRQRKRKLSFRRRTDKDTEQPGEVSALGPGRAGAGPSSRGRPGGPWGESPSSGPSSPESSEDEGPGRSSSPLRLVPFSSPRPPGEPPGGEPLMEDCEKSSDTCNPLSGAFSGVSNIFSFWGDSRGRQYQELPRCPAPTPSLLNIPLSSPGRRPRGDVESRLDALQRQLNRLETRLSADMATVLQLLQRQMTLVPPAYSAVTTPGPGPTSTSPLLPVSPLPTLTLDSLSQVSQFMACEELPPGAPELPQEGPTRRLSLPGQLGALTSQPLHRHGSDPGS

Compound | hERG current change (%, negative = inhibition) at 1uM [%]
O=C(CN1C(=O)C2CCCCN2C(=O)c2ccccc21)Nc1ccc(F)cc1.O=C(O)C(=O)O (stereo not shown) | 8.42
COc1ccc(CCNC(=O)CS(=O)Cc2nc(-c3ccccc3F)oc2C)cc1OC (stereo not shown) | 22
O=C(NCc1ccccc1)[C@@H]1CSC2c3ccccc3C(=O)N21 (stereo partly shown) | 0.963
Cc1ccccc1/C=C\c1nc2ccccc2c(=O)n1Cc1ccccc1 | 3.77
CCN(CC)P1(=O)OC(c2cc(OC)c(OC)c(OC)c2)=Nc2c1c(C)nn2-c1ccccc1 (stereo not shown) | 12.1
COc1ccc(-n2nc(C(=O)NCC(=O)NCCCN3CC(C)CC(C)C3)c3ccccc3c2=O)cc1 (stereo not shown) | 0.517
CCN(CC)C(=O)c1[nH]cnc1C(=O)Nc1ccc(OC)cc1 | 19.2
O=c1[nH]c(=S)[nH]c(O)c1C(c1ccccn1)c1c(O)[nH]c(=S)[nH]c1=O | 9.46
CCCCn1c(SCC(=O)Nc2ccc3c(c2)CCC3)nc2ccccc2c1=O | -0.515
O=C(CSCc1ccc(Cl)cc1)N1CCCCC1 | 10.1
Cc1cc(S(=O)(=O)NC2CCCCC2)ccc1OCC(=O)NCC1CCCO1 (stereo not shown) | 17.2
COc1ccc(NC(=O)c2cc(-c3ccco3)nc3ccccc23)cc1S(=O)(=O)N1CCOCC1 | 5.75
CCC(C(=O)N1CCN(S(=O)(=O)c2ccc(F)cc2)CC1)c1ccccc1 (stereo not shown) | 0.115
COc1ccc(C2(CNC(=O)c3ccccc3[N+](=O)[O-])CCOCC2)cc1 | 11.1
Cc1c(C(=O)OCC(=O)N(C)c2ccccc2)cccc1[N+](=O)[O-] | 12.6
O=C(NC(=S)Nc1ccc(N2CCOCC2)cc1)c1cccs1 | 6.36
COc1cc(SC)ccc1C(=O)Nc1ccc2c(c1)CCC2 | 10.4
Cc1ccccc1Cn1c(=O)n(CCCC(=O)NCc2ccco2)c(=O)c2ccccc21 | 3.14
CC(C)CN1CCC(=O)N([C@H](CO)Cc2ccccc2)CC1 | 11.4
Cc1cc(CNC(=O)Cc2ccc(F)cc2)c2ccccc2n1 | -2.68
Cc1ccc(/C=N/NC(=O)c2nnn(-c3nonc3N)c2CNc2ccccc2)cc1 | 3.23
COC(=O)c1ccc(NC(=O)CN2CCCC2)cc1 | 11.3

Compound | hERG current change (%, negative = inhibition) at 1uM [%]
Cc1ccc(-c2ccc(C(=O)NCc3ccc(Cl)cc3)o2)c2ccccc12 | 7.9
CC(=O)N1c2c(cc(Br)cc2S(=O)(=O)N2CCN(C(=O)c3ccco3)CC2)CC1C (stereo not shown) | 1.34
Cc1ccccc1CN1C[C@@H]2C[C@@H](c3cnc(N4CCOCC4)s3)N3CCC[C@@]23C1=O | 16.4
Cc1cc(-c2ccccc2)nc(N(C)C)c1S(C)(=O)=O | 4.07
Cc1ccnc(-n2sc3ccccc3c2=O)n1 | 0.984
COc1cccc(CN2CCN(S(=O)(=O)c3ccc(Cl)s3)CC2)c1 | 8.04
O=C(CCSc1ccc(Cl)cc1)NCc1ccncc1 | -1.61
Cl.O=C(CN1CCCC1)N1c2ccccc2C=Cc2ccccc21 | 11.1
CCn1c(=O)c(CCC(=O)N2CCN(c3ccccn3)CC2)c(C)c2c(C)nn(-c3ccccc3)c21 | 6.18
CCOc1ccc(NC(=O)c2ccccc2NC(=O)CN(C)CC(=O)Nc2ccc(C)cc2)cc1 | 1.17
CCOC(=O)N1CCN(Cc2nc3c(c(=O)n(C)c(=O)n3C)n2Cc2ccc(F)cc2)CC1 | -9.89
COc1cc(/C=N/Nc2nn3cnnc3c3ccccc23)cc(OC)c1OC | 9.29
COc1ccc(/C=C/C(=O)NC(=S)NNC(=O)c2cccnc2)cc1OC | -1.11
CCOC(=O)CN1C(=O)N[C@H](c2ccc(Br)cc2)C(C(C)=O)=C1C | 9.87
CN=c1scc(-c2cc(OC)ccc2OC)n1/N=C/c1c(C)[nH]c2ccccc12 | 12.6
CCCc1ccc2oc(C(=O)N(Cc3ccncc3)CC3CCCO3)c(C)c2c1 (stereo not shown) | -5.93
O=S1(=O)CCN(Cc2ccc(F)cc2)CC1 | 8.07
COc1cc(/C=C/C(=O)OCC(=O)NC2CCS(=O)(=O)C2)ccc1OC(F)F (stereo not shown) | 0.101
O=C(O)c1ccccc1Nc1ccccc1C(=O)O | -6.65
Cc1ccc(NC(=O)N2CCCC(c3nc(-c4ccc(F)cc4)no3)C2)cc1 (stereo not shown) | -0.763
Cn1cnnc1Sc1nc2c(c(=O)n(C)c(=O)n2C)n1Cc1ccccc1Cl | -4.45
CCC(C)NC(=O)c1ccc([N+](=O)[O-])c(Cl)c1 (stereo not shown) | 11.5

Compound | hERG current change (%, negative = inhibition) at 1uM [%]
CCOc1ccc(-c2nnn(CC(=O)Nc3cccc(OC)c3)n2)cc1OCC | 13.3
O=C(CSc1nc2ccc([N+](=O)[O-])cc2s1)NCC1CCCO1 (stereo not shown) | -22.3
Cc1c(C(=O)N2CCN(c3ccc([N+](=O)[O-])cc3)CC2)oc2ccccc12 | -12.9
CCOC(=O)c1c(C)nc(-c2ccccc2)nc1NC(C)=O | -1.89
c1ccc(OCc2nnc3n2N=C(c2ccccc2)CS3)cc1 | 4.99
Cc1nn(-c2nc3ccccc3n2Cc2ccccc2)c2c1C(=O)CC(C)(C)C2 | -5.11
COc1ccccc1Nc1nc(-c2sc(NC(=O)c3ccccc3)nc2C)cs1 | 9.63
COc1ccc(NC(C)=O)cc1NC(=O)CN1CCN(S(=O)(=O)c2ccc(C(C)C)cc2)CC1 | 2.23
CCOc1ncccc1C(=O)OCC(=O)NC1CC1 | 16.7
Clc1cccc(Cl)c1/C=N\Nc1nccs1 | 4.98
CCc1ccc(NC(=O)CN2CCCN(S(=O)(=O)c3ccc(F)cc3)CC2)cc1 | -21.2
Cc1ccc(S(=O)(=O)N2CCN(C(=O)c3ccccn3)CC2)cc1 | 10.9
CCOc1ccc(/C(O)=C2/C(=O)C(=O)N(Cc3cccnc3)C2c2ccc(N(C)C)cc2)c(C)c1 (stereo not shown) | -4.94
O=C(O)C(=O)O.O=C(c1cccs1)N1CCN(Cc2ccccn2)CC1 | 11.4
CCCCn1nc2cc(C(=O)NCC34CC5CC(CC(C5)C3)C4)ccc2c1OCC | 8.81
CCOC(=O)N1CCC(N2Cc3cccc(C(=O)Nc4ccc(N(CC)CC)cc4C)c3C2=O)CC1 | 6.74
O=C(NCC1CCCO1)c1ccc(NC(=O)C2CC=CCC2C(=O)O)cc1 (stereo not shown) | 13.3
CCOC(=O)c1sc(/N=C/c2c(O)n(-c3ccccc3)c(=O)[nH]c2=O)c(C#N)c1C | 12.3
Cc1ccc(C(=O)N2CCC(C(=O)NC3CCCC3)CC2)cc1 | 10.1
O=C(CSc1nnc(-c2ccco2)o1)NC(=O)C1COc2ccccc2O1 (stereo not shown) | 8.46
O=C(CCCC(=O)N1CCN(c2ccccc2F)CC1)c1ccccc1 | 0.99
O=C(CN1CCN(Cc2ccc(Cl)cc2)CC1)N/N=C/c1ccncc1 | -47.4

Compound | hERG current change (%, negative = inhibition) at 1uM [%]
O=C(O)Cn1nnnc1-c1ccc(F)cc1 | 0.87
COc1cccc(-c2ncc3ccccc3c2COC(=O)c2ccc(C(F)(F)F)cc2)c1 | 12.6
Cc1cccc(CCNC(=O)c2cc(S(=O)(=O)N3CCCCC3)c[nH]2)c1 | 6.66
COC(=O)c1cn(-c2ccccc2)nc1C(=O)OC | 2.12
O=C(CNC(=O)OCc1ccccc1)NCC(=O)N1CCCC1C(=O)OCc1ccccc1 (stereo not drawn) (Cbz-Gly-Gly-[ξP]-OBn) | 4
CCOC(=O)[C@H](CCc1ccccc1)N[C@@H](C)C(=O)N1[C@H](C(=O)O)C[C@@H]2CCC[C@@H]21 | 13.5
O=C(COC(=O)c1ccc(NS(=O)(=O)c2cccs2)cc1)NCC1CCCO1 (stereo not shown) | 8.91
COCC(=O)N1CCC(n2nccc2NC(=O)c2ccccc2OC)CC1 | 14.1
COc1ccc(CN2C(=O)CCC(C(=O)O)C2c2ccccc2)cc1 (stereo not shown) | 25.5
O=C(C/C=N/OCc1ccc(Cl)cc1Cl)c1ccc(Cl)cc1 | 14.8
Cc1nc2ccc(C(=O)Nc3ccccc3Cl)cc2s1 | 11.3
CCN(CC)S(=O)(=O)c1ccc(N2CCCC2)c(NC(=O)C2CSC3(C)CCC(=O)N23)c1 (stereo not shown) | 5.79
O=C(O)CCC(=O)N1N=C(c2cccs2)CC1c1cn(-c2ccccc2)nc1-c1ccccc1 (stereo not shown) | 1.74
O=C(/C=C/c1ccccc1)CC(O)(c1ccccc1)C(F)(F)C(F)F (stereo not shown) | 12.4
CCCOC(=O)c1[nH]c2c(c1C)C(=O)CC(c1ccc(OC)c(OC)c1)C2 (stereo not shown) | 1.81
S=c1[nH]nc(Cn2nnc3ccccc32)n1-c1ccc(Cl)cc1 | 8.81
CCCc1cc2c(cc1NC(=O)c1ccc(C)cc1)OCO2 | 1.44
OCc1ccc(OCCCOc2cccc3cccnc23)cc1 | 11.7
CC(=O)Nc1cc(C(=O)N2CCCC2)ccc1Sc1ccc(C)cc1 | -17.8
